Experimental data from the RNAGym collection of RNA variant scans (doi:10.1073/pnas.2313332121).
Variants at the floor of the assay are shown more often than the library holds them.

B1: TPR 5TU (parent)
chain: GGAUCUUCUCGAUCUAACAAAAAAGACAAAUCUGCCACAAAGCUUGAGAGCAUCUUCGGAUGCAGAGGCGGCAGCCUUCGGUGGCGCGAUAGCGCCAACGUUCUCAACUAUGACACGCAAAACGCGUGCUCCGUUGAAUGGAGUUUAUCAUG

Variants of: B1
Test: polymerase ribozyme fitness, log enrichment relative to wild type (log ratio); higher = more active; in vitro selection for triplet polymerase activity
How it was run: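 Streptavidin-bead capture of gel-excised extended constructs, followed by RT-PCR, closed a single triplicate in vitro selection round. That round began by annealing PCR-built, transcribed mutant libraries of each subunit of a heterodimeric triplet polymerase ribozyme with a biotinylated primer, the partner subunit and triplets, then incubating them frozen at −7 °C. After Illumina sequencing of inputs and outputs, genotypes needed ≥10 input reads and ≥1 read per output. Fitness is the base-2 logarithm of genotype enrichment over wild-type enrichment, using inverse-variance-weighted replicate averages.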

Polymerase ribozyme fitness (log ratio), -4.01:
A17U A19G A22U C93A

Polymerase ribozyme fitness (log ratio), -3.1:
A17C U55A U56A C85G A115G

Polymerase ribozyme fitness (log ratio), -2.56:
A17U A37G U82A U144A

Polymerase ribozyme fitness (log ratio), 0.456:
A17G C96U

Polymerase ribozyme fitness (log ratio), -3.67:
A17G C96A A97G U101C U148C

Polymerase ribozyme fitness (log ratio), -0.0919:
A17U A49G C85U C116A

Polymerase ribozyme fitness (log ratio), -1.83:
A17C A26C C87U

Polymerase ribozyme fitness (log ratio), 0.672:
A17G C95U G141A

Polymerase ribozyme fitness (log ratio), 0.372:
A17G G50U

Polymerase ribozyme fitness (log ratio), -1.61:
A17C C32U

Polymerase ribozyme fitness (log ratio), -2.32:
A17G C63A C118G A142U

Polymerase ribozyme fitness (log ratio), ≤ -4.2:
A16U U53A G80U C85U G152U
A16U U53C A89C C93G A147C
A16U U56A C57U G68A C87A
A16U U77A G84A U102C U144C U148A C149G
A16U U77A G92C C96U
A17C A19G C32A A52U G92U
A17C A20C C108G
A17C A20C G100A
A17C A20U A21U A24G G80A C108A
A17C A22G U44A C75G U90G C93G C103A
A17C A22U U33C G48A C75G C96A A107U
A17C A23U G42C C75U G86A A138C
A17C A24G A39U U56A C103G G136U
A17C A24G A47C C72U G88U A120C A121G
A17C A24U C32A G50A C51A A52G C85U C103U
A17C A24U U45A A49C A64G C76G G83C C95A U148A
A17C A26C C54U G86A U90C G140C
A17C A28G A30U C54A A91G G94A A137G
A17C A28U G46U A98U A107G A113G G133U
A17C A29U U145A
A17C A41G G74A C76G C85U A115C U135A G140A
A17C A47G C79A G81C G92C
A17C A66C G70A G88A C93U G94C U148A
A17C C18G A26U G42A C51A C85U C108U
A17C C35A A47C C51G G74U C75A
A17C C35U A60G G80A C87A A98G U151G
A17C C36A G84A G92A C114A
A17C C36U A47G C54A C85A C118A U127G U134C U151A
A17C C38G C75G G84U C103G G124C
A17C C57U A66C G81A U146G U148G
A17C C69U C76G
A17C C85G C108G G140A
A17C G25C C38A A49U U56G G92C U135C
A17C G25U A30C U33A A60U U102A
A17C G46A G70A G81A G86C U135G
A17C G48A A49C G86C G100C
A17C G58A U102G A120G G128A
A17C G58C G100C A106U
A17C G62U A98U G136U G140U
A17C G71C G84U G100U A107U
A17C G74C C87U G92C C105G G136U
A17C U33A C76U C93U U145G
A17C U55A A60C U77G G88C C131A U135G U145G U148A
A17G A19U G94C G143U U145G
A17G A19U U53A U56G A60U C69G U111G A142G
A17G A20U C57G G84U C93A C96G A119U G141A
A17G A21C A24C A26G C27G C87A C103G C108A A122U U134G
A17G A21C A28C G74C G86C C99G A107U U127A G143U
A17G A21G A29G G81A C93G G112U C118A U135A
A17G A21G G48C C57U C93A U101G C129U C132U G140A
A17G A22U C76U C96U A107U G136U
A17G A24U A30U U77G G126C
A17G A26C A40C G86U A98C C99A C108G A120G
A17G A26G C85U U102G C103A A137G
A17G A26U G42C C87G G124A
A17G A28U G83C U134G
A17G A29C A47C C51A U82A G84A
A17G A37C A91G C99A A107G U139G G143U U148C
A17G A37G C54A C57U A91U C125G C132U G143A
A17G A39C G68C C93G
A17G A39G A66G C72U
A17G A40C C85U C125A G126U
A17G A40U U44G C69U G83U
A17G A41U A64G G68C
A17G A41U U55A C85G A137U U148A
A17G A47C C85U G133U
A17G A47C C87A G88C A91U U111A
A17G A49C C51U G86C
A17G A49C C54U G80C C131G
A17G A49C G58C C76A C87G C114U
A17G A49C G59U G92A U102G U135G
A17G A49U G71C C79A A106U
A17G A52C C54U G86A C131G A142G
A17G C18A A19C A64U G70C C125G
A17G C18A A29C A37C C96A A107G G124C U151G
A17G C18G A40C C85G A106U G124U C125U
A17G C27A G140C G143U U144A
A17G C32G U33G U77G C87U U101A A147U
A17G C35A G67C C96U C114U C116U
A17G C38A C54G C75G C93U U102A G124U U135C
A17G C43G U77C C108A
A17G C54U G58A A60C U61G C79A G92U U127G
A17G C57A C85G G88A G140C G141U
A17G C63A C79U G86A A150G
A17G C75A U134A A138U
A17G C87A U135A U151A
A17G C93G C95U
A17G G25C A49C C93U A107G C116A
A17G G25C U33G A52U U77G G81U C105G
A17G G34A C51U G128U A142G
A17G G34A U56A G59A U78G
A17G G42C C43A C85A G143U
A17G G50C A110C
A17G G50U A66G G92C C95U G141A
A17G G59A C85U G92C C103A A122U
A17G G62U G68U C96A C105G U134G
A17G G67C A106C G128U
A17G G70A C85G
A17G G80C A91G
A17G G92A C103A C149A
A17G U33G G62U G80U C85U A115U U135C U148G
A17G U53A C79A G141C
A17G U53C A73G U139A A142U U146G
A17U A19C A24G C87G U90A U111C G141A
A17U A19C C38A G42C U56A U78G A113U C132G A142G U148A
A17U A19G C36U G42C G50A A73U A147C
A17U A20C C57A G71U C105G G141A
A17U A20U A73C G86A A89G C131A
A17U A21G A22C C38U A66U U82C G100A C125U
A17U A21U C43U G71A C75U C93A C114U A120U U151G
A17U A22G A49G C63A C69U A73U
A17U A22U A23C A24U G59C U61G C85A C95U
A17U A22U G25C C79U C96U U102G C103A C105U
A17U A23C A24C C38U U56A G59A C79U G84A A107C
A17U A23G A24U C57A G59U C85U A107G
A17U A23U A26C U55G G81C A142U
A17U A24C A26G C57U G86A
A17U A24G A28U A41U A47G C79U G83C C95A G100A G126A U145A A150C
A17U A28C C87A
A17U A28G C85A A120C C125A
A17U A29U A37C C75U G80U G92A C125U A142C
A17U A29U A47G A49U C87G G92U U151A
A17U A29U U55A G86U
A17U A30C U31C G48A U56A U90G G92A G117U G140C U148A
A17U A30U G42A C95A A138G
A17U A30U U55G A64C C79A A89G A97G U104G G141C U148C
A17U A37G A73U C93A C108U A142U
A17U A37U G48C G59A G88A C149U
A17U A39C A66C U90G
A17U A39C U56G A60U C75A U102A U134A A150G
A17U A39G G50C A52C C96U C118U
A17U A40C C43G A52G G92C G128C
A17U A40C G50U C87A A98U G117U
A17U A47U U139C
A17U A49C U55A G59A C87G C96U
A17U A49G C85G C87G U127A G152U
A17U A52U C57U C96U A98U C103G A121C G140C
A17U A64G C87U U90G
A17U A91C
A17U A91U
A17U C27U U53A C54U C57A C85U A89G C96A C108U A137G

Polymerase ribozyme fitness (log ratio), -3.91:
A17G A52U G83A C95U

Polymerase ribozyme fitness (log ratio), -3.01:
A17C G48C C93G

Polymerase ribozyme fitness (log ratio), -3.21:
A17C G84C A142G

Polymerase ribozyme fitness (log ratio), -1.71:
A17C U53G U55A A121G

Polymerase ribozyme fitness (log ratio), -1.28:
A17G C35U U53A G94A

Polymerase ribozyme fitness (log ratio), -4.15:
A17U A24U A39G C63G

Polymerase ribozyme fitness (log ratio), -3.29:
A17G G48C G94A C95U

Polymerase ribozyme fitness (log ratio), -4.04:
A17G C57A A91G C95G A122U

Polymerase ribozyme fitness (log ratio), -1.39:
A17G G84U G126A

Polymerase ribozyme fitness (log ratio), -4.08:
A17G C36G C79A C95U A97U G117U G126U

Polymerase ribozyme fitness (log ratio), -0.372:
A17U A40C G58C C76U G84U U144G

Polymerase ribozyme fitness (log ratio), -1.91:
A16U U61G G81A

Polymerase ribozyme fitness (log ratio), 0.238:
A17C G59A A60C G81C C95U C116U

Polymerase ribozyme fitness (log ratio), -1.29:
A17G C96G

Polymerase ribozyme fitness (log ratio), -3.03:
A17C G81U C85A C95U C105G A115U
